From the supplement of paper PMC10670038 come the findings set out here.

Structures can show the parent of a compound that is named as a salt. ± gives the standard deviation of the averaged measurements. The full ranking holds about 2,000 compounds; the median of “relative cell viability vs DMSO, compound + 0.2 uM CuET” is about 1, and the lowest 2% start at about 0.25. This is one part of the list.

The subject of the test is TE10. Kind of test: relative cell viability vs DMSO, compound + 0.2 uM CuET (fraction); TE10 is an esophageal squamous carcinoma line; higher = less cytotoxic. The note with it: 2 µM; co-treatment: CuET (bis(diethyldithiocarbamate)copper) 0.2 uM; 48 h. On the procedure:
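TE10 ESCC cells (1,000/well, 384-well plates) were treated with Selleck bioactive library compounds at 2 uM combined with 0.2 uM CuET (copper diethyldithiocarbamate) for 48 h. Viability was read by CellTiter-Glo and expressed relative to DMSO wells. Two technical replicates (A, B).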
With `COc1c/c(=C2\C=c3ccccc3=N2)[nH]/c1=C\c1[nH]c(C)cc1C` [Obatoclax Mesylate (GX15-070)], the relative cell viability came out at 0.354 ± 0.035. Turning to `CC(C)N(CCCNC(=O)Nc1ccc(C(C)(C)C)cc1)C[C@H]1O[C@@H](n2cc(Br)c3c(N)ncnc32)[C@H](O)[C@@H]1O`, the relative cell viability was 1.17 ± 0.032. `CC(C)(C)C(=O)C(Oc1ccc(Cl)cc1)n1ccnc1` (configuration not stated) [Climbazole]: the relative cell viability turned out to be 0.892 ± 0.06.

Consider `CC1(C)S[C@@H]2[C@H](NC(=O)C(C(=O)O)c3ccccc3)C(=O)N2[C@H]1C(=O)O` (some centres not stated) [Carbenicillin disodium], for which the relative cell viability came out at 0.775 ± 0.36.

For the compound `CN(C)/N=N/c1[nH]cnc1C(N)=O` [Dacarbazine], the relative cell viability worked out at 1.14 ± 0.095. In the case of `CC1C(=O)OC2C(O)C34C5CC(C(C)(C)C)C36C(OC(=O)C6O)OC4(C(=O)O5)C12O` (configuration not stated) [Ginkgolide B] it was 1.1 ± 0.025.

Consider `Cn1cc(-c2ccc3ncc(Cc4ccc5ncccc5c4)n3n2)cn1`, for which the relative cell viability was 1.09 ± 0.075. In the case of `Cc1onc(-c2c(Cl)cccc2Cl)c1C(=O)N[C@@H]1C(=O)N2[C@@H]1SC(C)(C)[C@@H]2C(=O)O` [Dicloxacillin Sodium] it was 1.09 ± 0.02; in that of `Cc1cc(NC(=O)Nc2ccc(N(C)C)cc2)c2cc(F)cc(F)c2n1`, 1.002 ± 0.0087. With `Cc1cn([C@H]2O[C@@H](CO)[C@H](O)[C@H]2F)c(=O)[nH]c1=O` [Clevudine] the figure was 0.769 ± 0.18; with `CCOC(=O)[C@H](CCc1ccccc1)N[C@@H](C)C(=O)N1Cc2ccccc2C[C@H]1C(=O)O` [Quinapril HCl], 1.04 ± 0.026; with `CC(CCc1ccccc1)NCC(O)c1ccc(O)c(C(N)=O)c1` (configuration not stated) [Labetalol HCl], 1.07 ± 0.12.

Regarding `NC1(C(=O)N[C@@H](CCO)c2ccc(Cl)cc2)CCN(c2ncnc3[nH]ccc23)CC1`, the relative cell viability is 0.882 ± 0.07. With `CC1CC(OC(=O)C(O)c2ccccc2)CC(C)(C)C1` (configuration not stated) [Cyclandelate], the relative cell viability amounted to 1.08 ± 0.13. With `O=C(O)c1cccnc1Nc1cccc(C(F)(F)F)c1` [Niflumic acid] the figure was 1.06 ± 0.18; with `Cc1oncc1C(=O)Nc1ccc(C(F)(F)F)cc1` [Leflunomide], 0.968 ± 0.21. In the case of `CCn1c2ccccc2c2cc(Nc3ccnc(NCCCN4CCOCC4)n3)ccc21` it was 0.962 ± 0.11; in that of `O=C1[C@H](Cc2ccc(O)cc2)N2C(=O)CCN(C(=O)NCc3ccccc3)[C@H]2CN1Cc1cccc2ccccc12`, 0.844 ± 0.014. In the case of `CC1(C)S[C@@H]2[C@H](NC(=O)[C@H](NC(=O)N3CCNC3=O)c3ccccc3)C(=O)N2[C@H]1C(=O)O` [Azlocillin sodium salt] it was 1.45 ± 0.15; in that of `Nc1nc2c(ncn2[C@@H]2O[C@H](CO)[C@@H](O)[C@H]2O)c(=O)[nH]1` [Guanosine], 1.18 ± 0.058; in that of `CC(C)OC(=O)[C@H](C)N[P@](=O)(OC[C@H]1O[C@@H](n2ccc(=O)[nH]c2=O)[C@](C)(F)[C@@H]1O)Oc1ccccc1` [Sofosbuvir (PSI-7977, GS-7977)], 0.976 ± 0.054. In the case of `COC(c1ccccc1)(c1ccccc1)[C@H](Oc1nc(C)cc(C)n1)C(=O)O` [Ambrisentan], the relative cell viability stood at 1.1 ± 0.056.

Take `CC(C)N(C[C@H]1O[C@@H](n2cnc3c(N)ncnc32)[C@H](O)[C@@H]1O)[C@H]1C[C@@H](CCc2nc3cc(C(C)(C)C)ccc3[nH]2)C1`: the relative cell viability was determined as 1.18 ± 0.043.

Turning to `COC(=O)C1=C(C)NC(C)=C(C(=O)OCCN2CCN(C(c3ccccc3)c3ccccc3)CC2)C1c1cccc([N+](=O)[O-])c1` (configuration not stated) [Manidipine 2HCl], the relative cell viability came to 0.986 ± 0.033.

For `COC(=O)C1=C(C)NC(C)=C(C(=O)OCCN2CCN(C(c3ccccc3)c3ccccc3)CC2)C1c1cccc([N+](=O)[O-])c1` (configuration not stated) [Manidipine], the relative cell viability is 0.882 ± 0.14. As to `C[N+]1(C)[C@@H]2CC[C@H]1C[C@@H](OC(=O)C(O)c1ccccc1)C2` (some centres not stated) [Homatropine Methylbromide], the relative cell viability was 1.13 ± 0.1. As for `C[N+]1(C)[C@@H]2C[C@@H](OC(=O)C(O)(c3cccs3)c3cccs3)C[C@H]1[C@@H]1O[C@@H]12` [Tiotropium Bromide hydrate], the relative cell viability turned out to be 0.962 ± 0.027. As for `Clc1ccc(NN=C(c2ccccc2)c2ccccn2)nc1`, the relative cell viability worked out at 0.03199 ± 0.00018. On to `CC(C(=O)O)c1ccc2c(c1)Cc1cccnc1O2` (configuration not stated) [Pranoprofen], for which the relative cell viability was 1.02 ± 0.056. For the compound `O=C(N/N=C/c1cc(O)c(O)cc1O)c1cc2ccccc2cc1O` [Dyngo-4a], the relative cell viability was 0.8745 ± 0.0076. As for `Cc1cc(C(N)=O)ccc1-n1c(CCC(=O)O)ccc1-c1ccc(-n2ccnc2)cc1`, the relative cell viability was 1.15 ± 0.02.

For `O=C(/C=C/c1ccc2ccccc2n1)c1ccncc1`, the relative cell viability amounted to 0.186 ± 0.037. In the case of `CC(=O)Nc1ccccc1` [Acetanilide] it was 1.018 ± 0.0034. For `CC(=O)O[C@]1(C(C)=O)CC[C@H]2[C@@H]3C[C@H](C)C4=CC(=O)C=C[C@]4(C)[C@@]3(F)[C@@H](O)C[C@@]21C` [Fluorometholone Acetate], the relative cell viability was 1.15 ± 0.022.

As to `O=C[C@H](O)[C@@H](O)[C@H](O)CO` [Xylose], the relative cell viability was 1.05 ± 0.012. Turning to `Cc1ccc(-c2csc(NC(=O)c3ccccc3)n2)c(C)c1`, the relative cell viability worked out at 1.22 ± 0.19. With `Cc1cc(C(C)(C)C)c(O)c(C)c1CC1=NCCN1` [Oxymetazoline hydrochloride] the figure was 1.13 ± 0.11; with `CC(C)(C(=O)O)c1ccc(C(O)CCCN2CCC(C(O)(c3ccccc3)c3ccccc3)CC2)cc1` (configuration not stated) [Fexofenadine HCl], 1.27 ± 0.31. For the compound `O=c1cc(N2CCOCC2)oc2c(-c3cccc4c3sc3ccccc34)cccc12`, the relative cell viability worked out at 0.829 ± 0.093. Take `COc1ccc([C@@H]2CC(=O)c3c(O)cc(O[C@@H]4O[C@H](CO[C@@H]5O[C@@H](C)[C@H](O)[C@@H](O)[C@H]5O)[C@@H](O)[C@H](O)[C@H]4O)cc3O2)cc1O` [Hesperidin]: the relative cell viability is 1.14 ± 0.1. In the case of `Cn1cnc(-c2cc3nccc(Oc4ccc(NC(=S)NC(=O)Cc5ccccc5)cc4F)c3s2)c1` it was 1 ± 0.012; in that of `CO/N=C(\C(=O)N[C@@H]1C(=O)N2C(C(=O)OCOC(=O)C(C)(C)C)=C(/C=C\c3scnc3C)CS[C@H]12)c1csc(N)n1` [Cefditoren Pivoxil], 1.04 ± 0.04. In the case of `C=C1C(=O)O[C@@H]2/C=C(\C)CC/C=C(\C)CC[C@@H]12` [Costunolide] it was 0.753 ± 0.011; in that of `O=C(Nc1ccccc1)c1cc([N+](=O)[O-])ccc1Cl`, 0.941 ± 0.1; in that of `Cc1onc(-c2ccccc2)c1-c1ccc(S(N)(=O)=O)cc1` [Valdecoxib], 1.01 ± 0.13. With `CCCc1cc(=O)[nH]c(=S)[nH]1` [Propylthiouracil] the figure was 1.06 ± 0.055. For `C[C@]12CCC(=O)C=C1CC[C@@H]1[C@@H]2[C@@H](O)C[C@@]2(C)[C@H]1CC[C@]2(O)C(=O)CO` [Hydrocortisone], the relative cell viability stood at 1.06 ± 0.017.

In the case of `CN1CCN(Cc2ccc(NC(=O)Cc3ccc(Oc4cc(NC(=O)C5CC5)ncn4)cc3)cc2C(F)(F)F)CC1`, the relative cell viability stood at 0.9884 ± 0.0017. In the case of `C=C[C@]1(C)C[C@@H](OC(=O)CS[C@@H]2C[C@H]3CC[C@@H](C2)N3C)[C@]2(C)[C@H](C)CC[C@]3(CCC(=O)[C@H]32)[C@@H](C)[C@@H]1O` [Retapamulin] it was 1.25 ± 0.065. Regarding `CN(N=O)C(=O)NC1C(O)OC(CO)C(O)C1O` (configuration not stated) [Streptozotocin (STZ)], the relative cell viability came out at 1.12 ± 0.067.

On to `Oc1ncnc2[nH]ncc12` [Allopurinol], for which the relative cell viability was 1.04 ± 0.05. With `O=C(CCc1ccc(O)cc1)c1c(O)cc(O)cc1O[C@@H]1O[C@H](CO)[C@@H](O)[C@H](O)[C@H]1O` [Phlorizin] the figure was 1.11 ± 0.047; with `COc1cccc2c1C(=O)c1c(O)c3c(c(O)c1C2=O)C[C@@](O)(C(=O)CO)C[C@@H]3O[C@H]1C[C@H](N)[C@H](O)[C@H](C)O1` [Doxorubicin (Adriamycin)], 1.03 ± 0.04. Take `CC1(C)S[C@@H]2[C@H](NC(=O)[C@H](N)c3ccc(O)cc3)C(=O)N2[C@H]1C(=O)O` [Amoxicillin Sodium]: the relative cell viability was determined as 1.06 ± 0.069. In the case of `CC1(C)S[C@@H]2[C@H](NC(=O)[C@H](N)c3ccc(O)cc3)C(=O)N2[C@H]1C(=O)O` [Amoxicillin] it was 0.42 ± 0.49; in that of `Cc1cc(C(=O)NOCCO)c(Nc2ccc(I)cc2F)n(C)c1=O`, 0.783 ± 0.14. In the case of `Cc1nc(Nc2cnn(C3CCNCC3)c2)nc2c1N(C)C(=O)c1cc3ccccc3cc1N2C` it was 1.14 ± 0.02; in that of `OCCOCCN1CCN(C2=Nc3ccccc3Sc3ccccc32)CC1` [Quetiapine Fumarate], 1.09 ± 0.054. With `Nc1nc(Cl)nc2c1ncn2[C@H]1C[C@H](O)[C@@H](CO)O1` [Cladribine] the figure was 1.125 ± 0.011; with `O=C(C=Cc1ccccc1)NC(NC(=S)Nc1ccc(Cl)cc1)C(Cl)(Cl)Cl` (configuration not stated), 0.908 ± 0.014.

Turning to `O=C([C@@H](Cc1cccc(C(F)(F)F)c1)NS(=O)(=O)c1cc(F)c2c(c1)CCNC2)N1CCCC1`, the relative cell viability came out at 0.956 ± 0.05. With `Cc1ccc(Nc2c(F)cccc2Cl)c(CC(=O)O)c1` [Lumiracoxib] the figure was 0.945 ± 0.024; with `O=c1cc(-c2cccc3c2Sc2ccccc2S3)oc(N2CCOCC2)c1`, 1.21 ± 0.18; with `Oc1ccc([C@H]2COc3cc(O)ccc3C2)cc1` [Equol], 1.2 ± 0.21. With `Fc1ccc(C(c2ccc(F)cc2)N2CCN(C/C=C/c3ccccc3)CC2)cc1` [Flunarizine 2HCl] the figure was 1.1 ± 0.029; with `N=C(N)c1ccc(OCCCCCOc2ccc(C(=N)N)cc2)cc1` [Pentamidine], 1.15 ± 0.18; with `Cc1[nH]c2ccccc2c1CCNC(=O)c1cccs1`, 1.01 ± 0.15. With `CCCCC(=O)O[C@H]1CC[C@H]2[C@@H]3CCc4cc(O)ccc4[C@H]3CC[C@]12C` [Estradiol valerate], the relative cell viability turned out to be 0.923 ± 0.042. `Cc1nc2ccc(-n3ncc(C(=O)c4cc5ccccc5[nH]4)c3N)cc2[nH]1`: the relative cell viability was found to be 0.987 ± 0.053.

Turning to `N#Cc1c(O)c2c(-c3ccc(-c4ccccc4O)cc3)csc2[nH]c1=O`, the relative cell viability came to 1.43 ± 0.18.

Take `CC(=O)O[C@@]12CO[C@@H]1C[C@H](O)[C@@]1(C)C(=O)[C@H](O)C3=C(C)[C@@H](OC(=O)[C@H](O)[C@@H](NC(=O)OC(C)(C)C)c4ccccc4)C[C@@](O)([C@@H](OC(=O)c4ccccc4)[C@H]21)C3(C)C` [Docetaxel Trihydrate]: the relative cell viability was found to be 1.08 ± 0.012. As for `CC(=O)O[C@@]12CO[C@@H]1C[C@H](O)[C@@]1(C)C(=O)[C@H](O)C3=C(C)[C@@H](OC(=O)[C@H](O)[C@@H](NC(=O)OC(C)(C)C)c4ccccc4)C[C@@](O)([C@@H](OC(=O)c4ccccc4)[C@H]21)C3(C)C` [Docetaxel], the relative cell viability turned out to be 1.1 ± 0.15.
